From the supplement of paper PMC3334620
Whole data set: some 33,000 sequences, median “E-score (-0.5 to 0.5)” near -0.04, cut for the highest 2% near 0.36. Some of the results follow.

target: T1, Hmlalpha2 (UniProt P0CY09); assay: PBM E-score (8-mer binding enrichment) (E-score (-0.5 to 0.5)); higher = stronger / more preferred TF binding; most listed sequences are background and not binding sites; details: protein concentration: 200 nM; construct: GST-full length
T1 sequence: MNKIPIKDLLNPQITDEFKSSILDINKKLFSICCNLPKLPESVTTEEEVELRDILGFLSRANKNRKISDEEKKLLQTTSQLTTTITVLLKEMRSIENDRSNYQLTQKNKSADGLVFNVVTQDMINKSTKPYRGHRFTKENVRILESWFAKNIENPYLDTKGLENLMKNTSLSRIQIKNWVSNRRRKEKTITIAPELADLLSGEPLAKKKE
In short: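 Using PURExpress in vitro transcription/translation, GST-tagged yeast transcription factors were made in full-length or DNA-binding-domain form. These were applied at about 100-200 nM to double-stranded universal all-10-mer Agilent arrays, and bound protein was detected with fluorescent anti-GST. Scans were normalised with masliner before the Universal PBM Analysis Suite assigned E-scores to ungapped eight-base words pooled with their reverse complements.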

Row | Sequence | PBM E-score
1 | GTACGTCA | 0.0179
2 | AGCGTGAT | 0.0131
3 | ATTGGCCG | -0.21
4 | CCTTTCAC | -0.0828
5 | CAGAGGAG | -0.284
6 | CAACGCTC | 0.0296
7 | CCTTGGCC | -0.362
8 | GCATATTA | 0.121
9 | AGTCGTAG | -0.0352
10 | GCGTTTCC | -0.0952
11 | ATAATCCG | 0.00942
12 | GTTTTCTA | 0.149
13 | GCCCTGTA | 0.186
14 | AGTACTTC | 0.137
15 | GAAAAAGA | 0.0555
16 | ATTCCGGA | -0.129
17 | GCAAAAAA | 0.0934
18 | GCGTTACA | 0.276
19 | ATCTGTGG | -0.267
20 | GCAGCAGA | -0.0749
21 | GCGCGGGA | -0.185
22 | GCGCCACC | -0.155
23 | ATTTCATC | -0.0172
24 | TATAATGA | 0.172
25 | CAGGAATC | -0.185

Row | Sequence | PBM E-score
26 | CGCACCAG | -0.0323
27 | GGTTCAAA | 0.0562
28 | ATTAAGTG | 0.126
29 | AGAACCAG | -0.122
30 | CGTATCCC | -0.0632
31 | GCGACCAC | -0.164
32 | AGAACCGA | -0.0617
33 | CACATCTA | 0.209
34 | GTACCCAA | -0.139
35 | AGTATACC | 0.051
36 | GACTAGTC | -0.106
37 | CTGCCCTC | -0.193
38 | CAGAACCC | -0.163
39 | AATGTCCC | -0.253
40 | AGACCGGC | -0.132
41 | GCATTTCA | -0.082
42 | AATCCGAA | -0.117
43 | ATCCGTGG | -0.229
44 | AGGCGACA | -0.243
45 | ATACATTA | 0.33
46 | AGGTTCGG | -0.305
47 | GATATGGA | 0.0312
48 | AAGCTGGC | -0.0714
49 | CAGGGAAA | -0.215
50 | GCGTAAAC | 0.404

Row | Sequence | PBM E-score
51 | CCGCAGCG | -0.224
52 | GAACCGTA | -0.288
53 | CTCGCTGA | 0.0421
54 | ATAAAACG | 0.153
55 | ACTATCGA | -0.078
56 | ACTTTGGC | -0.268
57 | AGGGGTGA | -0.304
58 | CAAACGGG | -0.0756
59 | ACTACTGC | -0.0623
60 | CCTCACAC | -0.126
61 | CGAGCTCC | -0.0747
62 | ACATTGAC | 0.301
63 | CCAACTCA | -0.0864
64 | GCATGAGA | -0.0236
65 | GTTCCTAA | 0.0497
66 | GGCACAAC | -0.0178
67 | TGTTCCAA | 0.0785
68 | CAAAGGTA | 0.0262
69 | GCCTAGAA | -0.187
70 | TGAAGAAA | 0.149
71 | GAAGACAA | 0.0781
72 | CAATAATG | 0.117
73 | TCCTATAA | -0.0544
74 | CAGACTGG | -0.158
75 | CCACATCC | -0.219

Row | Sequence | PBM E-score
76 | CTATCCGA | -0.159
77 | ACATTTCC | 0.13
78 | GCGAGGGA | -0.344
79 | CCAAATCC | -0.238
80 | ACATGTTG | 0.45
81 | GATTCAGC | -0.162
82 | ATAGCGTC | -0.0105
83 | GCCACGCC | -0.225
84 | CACTTCGA | -0.0376
85 | CTACAGGC | -0.0527
86 | GGTTGTAC | 0.11
87 | CAAAAATA | 0.0676
88 | ATGAACGC | 0.113
89 | GTCGAAAC | -0.003
90 | AATCAACG | 0.202
91 | ACTGGCTC | -0.169
92 | TATGGACA | 0.0965
93 | CCATGAAC | -0.0422
94 | AGAACGGC | -0.102
95 | ACGTTCGC | -0.0695
96 | AGTTGCAC | 0.0331
97 | ATGTTAGC | 0.342
98 | TAGTTAGA | 0.0649
99 | ACTCAATC | -0.0188
100 | CAGGTGCG | -0.0581

Row | Sequence | PBM E-score
101 | AGGTCCCC | -0.226
102 | AGTCGTGC | -0.0317
103 | CGTAATAG | 0.246
104 | TAGGTCAA | 0.00265
105 | TCCGTCCA | -0.263
106 | ATAGTCTA | 0.0205
107 | CCCCCATC | -0.275
108 | CCTAATTA | -0.0238
109 | GTCCTTAA | -0.0541
110 | AATCCGGC | -0.153
111 | ACAAACAA | 0.251
112 | CTGCATCC | -0.25
113 | ATATATTC | 0.108
114 | CCACCTGC | -0.136
115 | CAGTCATC | -0.169
116 | CCTTTCTC | -0.162
117 | CGTACCGA | -0.135
118 | CATAGAGG | -0.0117
119 | AGCATTAT | 0.189
120 | GCGGGTAA | -0.074
121 | GGCCGTAC | -0.00809
122 | ACCCGAAA | -0.206
123 | ACGAGGTC | -0.00914
124 | GGGTATTA | 0.0613
125 | CTCATTTC | -0.0194

Row | Sequence | PBM E-score
126 | ATATGTGC | 0.00781
127 | AATTAGGC | -0.0388
128 | CGTGAACA | 0.263
129 | ATTTGCCC | -0.183
130 | ACTGGTAC | -0.0246
131 | ATACCGAG | -0.184
132 | CGTCATGA | -0.026
133 | ATAGCAGC | -0.22
134 | AAATAAGT | 0.133
135 | ATACATAC | 0.386
136 | ACCCTAGC | -0.154
137 | GTAGTGGA | 0.106
138 | CCCTCCTC | -0.325
139 | ACCACTCG | 0.0845
140 | AGTCTTTG | -0.0399
141 | TCTTTCAA | 0.00306
142 | GGCCTTGA | -0.162
143 | CTTTGACC | -0.0661
144 | AATCTCTC | -0.00124
145 | ACGTACCA | 0.109
146 | CGGATTCA | -0.216
147 | GCATCGGA | 0.0192
148 | ACGGTTAG | -0.159
149 | GCTGAGGA | -0.237
150 | TAACAGCA | 0.273

Row | Sequence | PBM E-score
151 | AACAGCAC | 0.2
152 | AGGAATGC | -0.189
153 | AATCCGAG | -0.0815
154 | AAGCTCTG | -0.0475
155 | GTTTAGTA | 0.274
156 | CTAAGCAA | -0.078
157 | ACGAATTG | 0.0132
158 | AGTTTCTG | -0.0525
159 | GAGCTTCA | -0.0187
160 | GTTTTGCA | 0.142
161 | CGAACGAA | -0.106
162 | AGCTCTCA | -0.0711
163 | CCCAGTGC | -0.128
164 | GATCGAAC | -0.0112
165 | GCGGTTAC | 0.0707
166 | CAAGTTTA | 0.111
167 | GAGCTCCA | -0.144
168 | AGCATCAC | -0.0807
169 | ATAATTAA | 0.346
170 | ACAAGTGT | 0.172
171 | ACATGGAG | 0.262
172 | AAGACATT | -0.104
173 | GATCGGTA | -0.032
174 | AGCAGGGC | -0.104
175 | ACGATCTG | -0.247

Row | Sequence | PBM E-score
176 | GCACCGCC | -0.256
177 | GCATGAAA | 0.104
178 | CTGGTATC | -0.0621
179 | CGCCCTGA | -0.122
180 | ATAAACAC | 0.365
181 | GCCAAAAA | 0.0368
182 | TGGGACAA | 0.0458
183 | CGCCGATC | -0.0788
184 | ACGAACAG | 0.0265
185 | ACATTCCT | -0.0716
186 | AAGAACCG | 0.117
187 | CATCTCTA | 0.00595
188 | GCAACCTA | 0.0134
189 | GCGGTTCA | -0.187
190 | GACCGCAA | -0.00729
191 | CCAGCACG | -0.00777
192 | AGCCGAAC | -0.145
193 | CCCCCAAG | -0.224
194 | CTCAGGAC | -0.149
195 | CCTCCAGG | -0.335
196 | ACTTCTAT | 0.024
197 | AACTACAT | 0.392
198 | CACAAACC | 0.00801
199 | ATGCACGA | 0.0499
200 | TAACCAAA | 0.137

Row | Sequence | PBM E-score
201 | TGGGCCCA | -0.232
202 | CCGACATA | 0.165
203 | ACTAGGTA | 0.179
204 | AAAAGGCT | -0.126
205 | TGACTAAA | -0.064
206 | CTAAATAC | 0.16
207 | CTTGATGA | 0.041
208 | CGTCGAAG | -0.00906
209 | ACCTGTCG | 0.0455
210 | CGAAGATC | -0.0547
211 | CGTCCATC | -0.167
212 | AGTGGTAA | 0.12
213 | ATTGAGAA | 0.142
214 | ACCGTCGA | 0.0386
215 | GGCGTAAA | 0.217
216 | AGGGATTA | 0.135
217 | AGAAATCC | -0.137
218 | GAACGGGA | -0.148
219 | ACCCAAGC | -0.264
